According to article PMC12547515:
Results are given in words; binding and its absence hold for the method and conditions named. Binding seen in cells or lysates may run through a third protein. Some entries that bind do so weakly or less than the wild type. For some assays here: Tags and fused reporters may be left off the sequences shown.

The chains behind the UniProt entries cited, without tags or fusion partners.
UniProt P08670: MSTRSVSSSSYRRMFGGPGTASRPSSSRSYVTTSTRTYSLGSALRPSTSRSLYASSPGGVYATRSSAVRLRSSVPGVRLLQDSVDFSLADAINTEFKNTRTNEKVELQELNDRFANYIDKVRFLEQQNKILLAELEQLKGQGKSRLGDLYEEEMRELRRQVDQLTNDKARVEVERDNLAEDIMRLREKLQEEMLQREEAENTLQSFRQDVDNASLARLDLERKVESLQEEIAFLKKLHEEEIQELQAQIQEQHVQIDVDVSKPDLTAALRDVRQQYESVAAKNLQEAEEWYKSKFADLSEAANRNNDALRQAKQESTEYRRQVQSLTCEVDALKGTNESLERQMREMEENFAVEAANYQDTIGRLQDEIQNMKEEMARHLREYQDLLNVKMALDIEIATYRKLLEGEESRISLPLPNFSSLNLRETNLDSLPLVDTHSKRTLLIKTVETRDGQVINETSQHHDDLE

Key:
[1] = biological target: T1, Myc-TRIM44-BB (B-box domain only, amino acids 174-215) (human) (UniProt Q96DX7); assay: co-IP; HEK-293T cells co-transfected with HA-vimentin and MYC-TRIM44 or TRIM44 deletion mutants; lysates immunoprecipitated with MYC-tag antibody, Western blot with HA-tag antibody
T1 sequence: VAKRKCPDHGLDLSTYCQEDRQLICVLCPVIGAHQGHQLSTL

[2] = biological target: T2, Myc-TRIM44-CC (coiled-coil domain only, amino acids 290-325) (human) (UniProt Q96DX7); assay: as above
T2 sequence: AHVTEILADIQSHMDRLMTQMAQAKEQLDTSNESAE

[3] = biological target: Myc-TRIM44-ZF (zinc finger domain only, amino acids 13-48) (human) (UniProt Q96DX7); assay: as above
[4] = biological target: Myc-TRIM44-ΔB (TRIM44 with a deleted BB domain, del 174-215) (human) (UniProt Q96DX7); assay: as above
[5] = biological target: Tripartite motif-containing 44 (TRIM44), endogenous (human (endogenous in 769-P, Caki-1, OSRC-2, ACHN)) (UniProt Q96DX7); assay: co-IP; isolated nuclear proteins of 769-P, OSRC-2, Caki-1 and ACHN cells
[6] = biological target: Tripartite motif-containing 44 (TRIM44), endogenous (human (endogenous in 769-P, Caki-1, OSRC-2, ACHN)) (UniProt Q96DX7); assay: co-IP; isolated cytoplasmic proteins of 769-P, OSRC-2, Caki-1 and ACHN cells
[7] = biological target: Tripartite motif-containing 44 (TRIM44), endogenous (human (endogenous in 769-P, Caki-1, OSRC-2, ACHN)) (UniProt Q96DX7); assay: co-IP; whole lysates (RIPA buffer) of 769-P, Caki-1, OSRC-2 and ACHN cells; primary antibody 24 h at 4 °C, protein A/G beads, Western blot
[8] = biological target: Tripartite motif-containing 44 (TRIM44), endogenous (human (endogenous in 769-P, Caki-1, OSRC-2, ACHN)) (UniProt Q96DX7); assay: proximity ligation; Duolink PLA on fixed, permeabilised ccRCC cells (769-P, Caki-1; further lines in Fig. S5F) with antibodies against TRIM44 (1:100) and vimentin (1:500)

Row | Substance | binding [1] | binding [2] | binding [3] | binding [4] | binding [5] | binding [6] | binding [7] | binding [8]
1 | HA-vimentin (from UniProt P08670 1-466) | binds | no binding | no binding | no binding | – | – | – | –
2 | vimentin, endogenous (from UniProt P08670 1-466) | – | – | – | – | binds weakly | binds | binds | binds
